According to patent US20110130357A1 (priority 2008, published 2011):

What was measured:
[1] = system: Staphlococcus aureus (ATCC 33591); conditions: 35° C., 12-18 hrs
Description: (§1) The minimum inhibitory concentration of M038 was determined for selected bacterial pathogens. For purposes of the experiments discussed in this paragraph, the minimum inhibitory concentration (MIC) is defined as the minimum concentration of compound needed to inhibit the growth of bacteria. A solution of selected bacteria was inoculated Trypticase Soy broth at 35° C. and incubated for 1-2 hours. Following incubation, the bacterial concentrations were determined, and diluted with broth, if necessary, to an absorption value of 0.08 to 0.1 at 625 nm. The adjusted inoculated medium (100 μL) was diluted with 10 ml broth, and then applied to a 96-well microtiter plate (50 μL). A series of solutions (50 μL each in 2-fold dilution) of M038 was added to the testing wells. The 96-well plate was incubated at 35° C. for 12-18 hrs. The MIC results were repeated at least three times.

[2] = system: Klebsiella pneumonia (ATCC 700603); conditions: 35° C., 12-18 hrs
Description: as §1

## CCCCCCCCO[C@H]1[C@H](O)[C@@H](O)[C@@H](O[C@@H]2[C@@H](O)[C@H](O[C@H]3O[C@H](CN)[C@@H](O)[C@H](O)[C@H]3N)[C@@H](N)C[C@H]2N)O[C@@H]1C [JL038, 6-O-(6-Deoxy-4-O-n-octyl-α-D-glucopyranosyl)neamine]
[1]
  Minimal inhibitory concentration (MIC): 250 μ/mL
[2]
  Minimal inhibitory concentration (MIC): 250 μ/mL
